The text below walks through data of the supplement of paper PMC4604168 (melanoma cell lines).

This is one part of the list. Single values are uncertain, as repeats are few or missing.
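Note: cells treated in 1,536-well plates, then fixed and DAPI-stained, with nuclei counted from automated high-throughput microscope images.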

This assay deals with COLO800. Nature of the assay: cell count relative to DMSO control; melanoma cells; higher = more viable cells. Particulars: library dose: standard library concentration; 72 h.
Consider `CN(c1ncccc1CNc1nc(Nc2ccc3c(c2)CC(=O)N3)ncc1C(F)(F)F)S(C)(=O)=O` + O=C1NC(=O)/C(=C/c2ccc(-c3ccc(F)cc3O)o2)S1 [AS252424] (first compound 0.4 µM, partner dose 5 µM), for which the cell count came to 73.2%.
`C=C(c1ccc(C(=O)O)cc1)c1cc2c(cc1C)C(C)(C)CCC2(C)C` [Bexarotene] + CCN(CC)CCCCNc1ncc2cc(-c3cc(OC)cc(OC)c3)c(NC(=O)NC(C)(C)C)nc2n1 [PD173074] (first compound 10 µM, partner dose 0.5 µM): the cell count was 63.6%.
With `NC1(c2ccc(-c3nc4ccn5c(=O)[nH]nc5c4cc3-c3ccccc3)cc2)CCC1` + CC(C)CCN1c2nc(Nc3cc(F)c(O)c(F)c3)ncc2N(C)C(=O)C1C [BID1870] (first compound 2 µM, partner dose 1 µM), the cell count is 41.9%.
`C=C(c1ccc(C(=O)O)cc1)c1cc2c(cc1C)C(C)(C)CCC2(C)C` [Bexarotene] + Cn1c(Nc2ccc(C(F)(F)F)cc2)nc2cc(Oc3ccnc(-c4ncc(C(F)(F)F)[nH]4)c3)ccc21 [CHIR265] (first compound 10 µM, partner dose 0.4 µM) had a cell count of 152%.
As for `C=C(c1ccc(C(=O)O)cc1)c1cc2c(cc1C)C(C)(C)CCC2(C)C` [Bexarotene] + O=S(=O)(c1ccccc1)N(CC(F)(F)F)c1ccc(C(O)(C(F)(F)F)C(F)(F)F)cc1 [T0901317] (first compound 10 µM, partner dose 7 µM), the cell count turned out to be 104%.
In the case of `CS(=O)(=O)c1ccc(C(=O)Nc2ccc(Cl)c(-c3ccccn3)c2)c(Cl)c1` [vismodegib] + O=C(Nc1ccccc1)c1cc([N+](=O)[O-])ccc1Cl [GW9662] (first compound 5 µM, partner dose 10 µM) it was 78.2%.
Regarding `C=C(c1ccc(C(=O)O)cc1)c1cc2c(cc1C)C(C)(C)CCC2(C)C` [Bexarotene] + CC(C)(C)c1cnc(CSc2cnc(NC(=O)C3CCNCC3)s2)o1 [SNS-032] (first compound 10 µM, partner dose 0.05 µM), the cell count is 99.5%.
In the case of `C=C(c1ccc(C(=O)O)cc1)c1cc2c(cc1C)C(C)(C)CCC2(C)C` [Bexarotene] + CC(C)CCN1c2nc(Nc3cc(F)c(O)c(F)c3)ncc2N(C)C(=O)C1C [BID1870] (first compound 10 µM, partner dose 1 µM), the cell count was found to be 131%.
In the case of `NC1(c2ccc(-c3nc4ccn5c(=O)[nH]nc5c4cc3-c3ccccc3)cc2)CCC1` + COc1ccc(COc2ccc(Cc3cnc(N)nc3N)cc2OC)cc1 [GW2580] (first compound 2 µM, partner dose 5 µM) it was 102%; in that of `CS(=O)(=O)c1ccc(C(=O)Nc2ccc(Cl)c(-c3ccccn3)c2)c(Cl)c1` [vismodegib] + O=C(O)[C@@H]1[O][Sb](=[O])([O][Sb]2(=[O])[O][C@H]([C@H](O)CO)[C@H](O)[C@H](C(=O)O)[O]2)[O][C@H]([C@H](O)CO)[C@@H]1O [stibogluconate] (first compound 5 µM, partner dose 10 µM), 114%.
As to `CS(=O)(=O)c1ccc(C(=O)Nc2ccc(Cl)c(-c3ccccn3)c2)c(Cl)c1` [vismodegib] + Oc1nc(-c2ccc(C(F)(F)F)cc2)nc2c1CSCC2 [XAV939] (first compound 5 µM, partner dose 10 µM), the cell count is 49.2%.
In the case of `CCCS(=O)(=O)Nc1ccc(F)c(C(=O)c2c[nH]c3ncc(Cl)cc23)c1F` + CC(C)(C)c1cnc(CSc2cnc(NC(=O)C3CCNCC3)s2)o1 [SNS-032] (first compound 0.4 µM, partner dose 0.05 µM) it was 53.4%; in that of `CN(c1ncccc1CNc1nc(Nc2ccc3c(c2)CC(=O)N3)ncc1C(F)(F)F)S(C)(=O)=O` + Cn1c(=O)n(-c2ccc(C(C)(C)C#N)cc2)c2c3cc(-c4cnc5ccccc5c4)ccc3ncc21 [NVP-BEZ235] (first compound 0.4 µM, partner dose 0.02 µM), 81.4%; in that of `NC1(c2ccc(-c3nc4ccn5c(=O)[nH]nc5c4cc3-c3ccccc3)cc2)CCC1` + NC(=O)Nc1cc(-c2cccc(F)c2)sc1C(=O)N[C@H]1CCCNC1 [AZD7762] (first compound 2 µM, partner dose 0.1 µM), 65.1%.
In the case of `NC1(c2ccc(-c3nc4ccn5c(=O)[nH]nc5c4cc3-c3ccccc3)cc2)CCC1` + O=C(Nc1ccccc1)c1cc([N+](=O)[O-])ccc1Cl [GW9662] (first compound 2 µM, partner dose 10 µM) it was 70%.
In the case of `C=C(c1ccc(C(=O)O)cc1)c1cc2c(cc1C)C(C)(C)CCC2(C)C` [Bexarotene] + O=C(CCCCCCC(=O)Nc1ccccc1)NO [vorinostat] (first compound 10 µM, partner dose 0.4 µM), the cell count stood at 71.2%.
As for `CCCS(=O)(=O)Nc1ccc(F)c(C(=O)c2c[nH]c3ncc(Cl)cc23)c1F` + O=C1NC(=O)/C(=C/c2ccc(-c3ccc(F)cc3O)o2)S1 [AS252424] (first compound 0.4 µM, partner dose 5 µM), the figure is 79.7%; as for `NC1(c2ccc(-c3nc4ccn5c(=O)[nH]nc5c4cc3-c3ccccc3)cc2)CCC1` + O=C(O)C(=O)Nc1sc2c(c1C(=O)O)CCNC2 [TCS401] (first compound 2 µM, partner dose 8.33333 µM), 75.5%; as for `CN(c1ncccc1CNc1nc(Nc2ccc3c(c2)CC(=O)N3)ncc1C(F)(F)F)S(C)(=O)=O` + CC(=O)c1c(C)c2cnc(Nc3ccc(N4CCNCC4)cn3)nc2n(C2CCCC2)c1=O [palbociclib] (first compound 0.4 µM, partner dose 0.2 µM), 110%.
For the molecule `C=C(c1ccc(C(=O)O)cc1)c1cc2c(cc1C)C(C)(C)CCC2(C)C` [Bexarotene] + CCCCCCCCCCCC1=C(O)C(=O)C=C(O)C1=O [Embelin] (first compound 10 µM, partner dose 6 µM), the cell count turned out to be 130%.
Molecule `CN(c1ncccc1CNc1nc(Nc2ccc3c(c2)CC(=O)N3)ncc1C(F)(F)F)S(C)(=O)=O` + COc1ccc(-c2ccc3c(N4CCOCC4)nc(N4C[C@@H](C)O[C@@H](C)C4)nc3n2)cc1CO [KU0063794] (first compound 0.4 µM, partner dose 0.1 µM) had a cell count of 85.2%.
In the case of `CN(c1ncccc1CNc1nc(Nc2ccc3c(c2)CC(=O)N3)ncc1C(F)(F)F)S(C)(=O)=O` + COC(=O)c1sccc1S(=O)(=O)Nc1ccc(Nc2ccccc2)cc1OC [GSK0660] (first compound 0.4 µM, partner dose 5 µM) it was 83.9%; in that of `NC1(c2ccc(-c3nc4ccn5c(=O)[nH]nc5c4cc3-c3ccccc3)cc2)CCC1` + O=c1cc(-c2cccc3c2Sc2ccccc2S3)oc(N2CCOCC2)c1 [KU55933] (first compound 2 µM, partner dose 5 µM), 64.2%; in that of `CN(c1ncccc1CNc1nc(Nc2ccc3c(c2)CC(=O)N3)ncc1C(F)(F)F)S(C)(=O)=O` + CCCCCCCCCCCC1=C(O)C(=O)C=C(O)C1=O [Embelin] (first compound 0.4 µM, partner dose 6 µM), 96.4%.
Regarding `CN(c1ncccc1CNc1nc(Nc2ccc3c(c2)CC(=O)N3)ncc1C(F)(F)F)S(C)(=O)=O` + COc1cc2ncnc(Nc3ccc(Oc4ccccc4)cc3)c2cc1OC [SrcI1] (first compound 0.4 µM, partner dose 10 µM), the cell count was 102%.
As for `CS(=O)(=O)c1ccc(C(=O)Nc2ccc(Cl)c(-c3ccccn3)c2)c(Cl)c1` [vismodegib] + CCN(CC)CCCCNc1ncc2cc(-c3cc(OC)cc(OC)c3)c(NC(=O)NC(C)(C)C)nc2n1 [PD173074] (first compound 5 µM, partner dose 0.5 µM), the figure is 104%.
As for `C=C(c1ccc(C(=O)O)cc1)c1cc2c(cc1C)C(C)(C)CCC2(C)C` [Bexarotene] + Cn1nnc2c(C(N)=O)ncn2c1=O [temozolomide] (first compound 10 µM, partner dose 10 µM), the figure is 169%.
For `NC1(c2ccc(-c3nc4ccn5c(=O)[nH]nc5c4cc3-c3ccccc3)cc2)CCC1` + CCN(CC)CCCCNc1ncc2cc(-c3cc(OC)cc(OC)c3)c(NC(=O)NC(C)(C)C)nc2n1 [PD173074] (first compound 2 µM, partner dose 0.5 µM), the cell count was found to be 61.8%.
Regarding `CN(c1ncccc1CNc1nc(Nc2ccc3c(c2)CC(=O)N3)ncc1C(F)(F)F)S(C)(=O)=O` + O=C(O)C(=O)Nc1sc2c(c1C(=O)O)CCNC2 [TCS401] (first compound 0.4 µM, partner dose 8.33333 µM), the cell count turned out to be 138%.
On to `CN(c1ncccc1CNc1nc(Nc2ccc3c(c2)CC(=O)N3)ncc1C(F)(F)F)S(C)(=O)=O` + COc1ccc(COc2ccc(Cc3cnc(N)nc3N)cc2OC)cc1 [GW2580] (first compound 0.4 µM, partner dose 5 µM), for which the cell count was 135%.
As for `CN(c1ncccc1CNc1nc(Nc2ccc3c(c2)CC(=O)N3)ncc1C(F)(F)F)S(C)(=O)=O` + CCN(CC)CCCCNc1ncc2cc(-c3cc(OC)cc(OC)c3)c(NC(=O)NC(C)(C)C)nc2n1 [PD173074] (first compound 0.4 µM, partner dose 0.5 µM), the figure is 86.6%; as for `NC1(c2ccc(-c3nc4ccn5c(=O)[nH]nc5c4cc3-c3ccccc3)cc2)CCC1` + c1cc(-c2cnn3cc(-c4ccc(OCCN5CCCCC5)cc4)cnc23)ccn1 [Dorsomorphin] (first compound 2 µM, partner dose 2 µM), 59.2%.
